These results are taken from the RNAGym collection of RNA variant scans (doi:10.7554/elife.90254).

The source gives no read counts; variants with many changes may rest on few reads.

To fix the notation:
B1: LINE1-mini (parent)
chain: GGCAGAGCUCAACACAGCGUGGCAAAGUGGCUGUGGCUAGACUGCC

In the data set the parent is B1. The experiment in a line: self-cleavage, relative activity (ratio to wild type); higher = more cleavage; in vitro, sequencing; the parent is a self-cleaving ribozyme.
For the variant G5A U34G C45G, the self-cleavage was found to be 0.06.

As to G5A U9C U38G, the self-cleavage was determined as 0.03.

Turning to G5A U28G G36C, the self-cleavage is 0.03.

In the case of G5A U9G A24C G29C C37U, the self-cleavage was found to be 0.02.

Turning to G5C C15A C18A G21A G44U, the self-cleavage came to 0.01.

In the case of G5C A24C G36U, the self-cleavage stood at 0.03.

Consider G5C C18U G29U, for which the self-cleavage was 0.04.

In the case of G5C A11C A12C U20C A25G, the self-cleavage came to 0.01.

Turning to G5C C15G C18A A25C, the self-cleavage is 0.03.

On to G5C C18A U32C C42U, for which the self-cleavage was determined as 0.05.

Take G5C A12C A24G: the self-cleavage stood at 0.03.

With G5C C18A G27U, the self-cleavage stood at 0.02.

For the variant G5C G7C C31U, the self-cleavage amounted to 0.02.

On to G5A U20G A24U G33U, for which the self-cleavage came out at 0.06.

Consider G5C C8U G35U, for which the self-cleavage was determined as 0.35.

In the case of G5C G17U U28A G29U G35A, the self-cleavage was 0.04.

Turning to G5C C10A G29U U32A, the self-cleavage came out at 0.08.

Take G5A U9C A24G A25G A39U: the self-cleavage turned out to be 0.04.

G5C G17U C18A C45U: the self-cleavage came out at 0.03.

For G5C C23A C45G, the self-cleavage turned out to be 0.03.

Take G5C A14C C18G G33U C37G U38G C46U: the self-cleavage stood at 0.

In the case of G5C C8A G22A U38C G40U C45A, the self-cleavage was 0.1.

For G5C G7U C23U G35A, the self-cleavage was determined as 0.74.

In the case of G5C A12C G33A U38G, the self-cleavage was determined as 0.02.

In the case of G5C C10A C31G, the self-cleavage came out at 0.04.

In the case of G5C C13U G19U C42A, the self-cleavage was determined as 0.01.

Turning to G5C C13A A25G, the self-cleavage was 0.05.

For G5C C31A C42G, the self-cleavage is 0.06.

With G5C A12C G17C U28C, the self-cleavage amounted to 0.02.

As for G5C A6C C13U C15U, the self-cleavage is 0.25.

As to G5C G7C C13U G17A U20A, the self-cleavage was found to be 0.03.

Turning to G5C C13A C23G G33U, the self-cleavage was 0.02.

As for G5A U32G G35C A39C, the self-cleavage turned out to be 0.26.

For G5C A11U A16U G33C, the self-cleavage was 0.01.

As for G5C A6G G40U, the self-cleavage worked out at 0.14.

For the variant G5A U28C G29U G40U, the self-cleavage is 0.03.

Turning to G5C C8G G22U G40U U43A, the self-cleavage worked out at 0.11.

As to G5C A6C C10A G22U, the self-cleavage stood at 0.01.

G5C G7C G30U C45A: the self-cleavage is 0.02.

Turning to G5C A12U C31G C37U G40A, the self-cleavage came out at 0.03.

For the variant G5C C10A G19U G29A, the self-cleavage was 0.01.

For G5A U9G U43A, the self-cleavage is 0.32.

On to G5C A24G C37G, for which the self-cleavage amounted to 0.03.

As to G5A U9A G29C G36A, the self-cleavage came to 0.15.

For the variant G5C G7U G29U, the self-cleavage amounted to 0.23.

For the variant G5C A11C C15U C31G, the self-cleavage came to 0.02.

For G5C A14G G29A G40A C46G, the self-cleavage worked out at 0.01.

In the case of G5C C8U G22A G33C, the self-cleavage amounted to 0.03.

G5A U28A C31A G33U: the self-cleavage is 0.07.

For the variant G5C A12C G19A U32G G33U G36A G40U, the self-cleavage was 0.04.

In the case of G5C C8U C15U U20A C37A U43A, the self-cleavage came to 0.03.

G5C A12G U28A C31U: the self-cleavage was 0.02.

For G5C G7U C18G U38G, the self-cleavage came to 0.01.

As for G5C C15A G17A A26C C45G, the self-cleavage is 0.01.

Turning to G5C A11G U43G, the self-cleavage worked out at 0.03.

As for G5A U34A C37A A41C U43G C46U, the self-cleavage was found to be 0.07.

On to G5C A11G G17U C46A, for which the self-cleavage stood at 0.

For G5C C31U A41C U43G, the self-cleavage turned out to be 0.03.

Consider G5C A6U U20C, for which the self-cleavage was 0.06.

Take G5C A24G A26G G30U U38A: the self-cleavage is 0.01.

For G5A U9A C23U U34C C46A, the self-cleavage is 0.24.

For G5C C8A A24C G36A A39C, the self-cleavage was 0.41.

In the case of G5C A11U C13G A14U G36A C37G U43A, the self-cleavage is 0.

G5A U9G A14U G19A U28A G29A U34C U38C: the self-cleavage turned out to be 0.02.

As for G5C G19A A25G A26U U32G G36C, the self-cleavage came to 0.

For the variant G5C C10A U32A, the self-cleavage was determined as 0.02.

Turning to G5C G7U C10A C13A A14U G27U, the self-cleavage was 0.04.

In the case of G5C G17A G35C, the self-cleavage amounted to 0.09.

On to G5A U38C G44C, for which the self-cleavage was determined as 0.09.

For the variant G5A U32C U43G, the self-cleavage was determined as 0.23.

As to G5C C8U C23A G27C, the self-cleavage turned out to be 0.02.

Regarding G5C A24C G44A, the self-cleavage came to 0.05.

As to G5C A24U G27C U28A, the self-cleavage was found to be 0.02.

In the case of G5C A6C C8U C15G, the self-cleavage came out at 0.11.

As for G5A U20C A24G G27U, the self-cleavage came to 0.15.

With G5A U28C G29A G35A, the self-cleavage was found to be 0.09.

For the variant G5C G17C G30U G40U, the self-cleavage amounted to 0.06.

Turning to G5C G7A G22A G29A, the self-cleavage came out at 0.19.

Turning to G5C A6G G17A G30U G33U G36A G40U, the self-cleavage was 0.06.

Regarding G5A U9A A11U G36U, the self-cleavage is 0.01.

Turning to G5A U9C C18A, the self-cleavage stood at 0.03.

For G5C C31A U32G, the self-cleavage is 0.02.

As for G5A U9A C18U G29A, the self-cleavage came to 0.12.

Take G5C A25C A41C G44U: the self-cleavage amounted to 0.05.

As for G5C A24C U32G G40C, the self-cleavage was 0.01.

Take G5A U9G C13A: the self-cleavage was determined as 0.93.

Take G5C C8A G36U C45A: the self-cleavage came out at 0.03.

Turning to G5C G7A U9A G22U G33U U43C, the self-cleavage was found to be 0.5.

As for G5C C8A U32C G36A U43G, the self-cleavage is 0.03.

Take G5C C13U G19A: the self-cleavage was 0.02.

With G5C A16G U38A A39C C42U, the self-cleavage came out at 0.04.

For G5C C8U G27A, the self-cleavage was determined as 0.04.

In the case of G5C A6U C13U, the self-cleavage stood at 0.08.

In the case of G5C A14G A41U, the self-cleavage was 0.07.

G5A U38A A41G: the self-cleavage is 0.28.

Consider G5A U20G U32A C37U, for which the self-cleavage was determined as 0.01.

Turning to G5C A16C G33C A39U, the self-cleavage stood at 0.13.

As to G5C A11U C15A, the self-cleavage was determined as 0.02.

For G5C C8G C42U, the self-cleavage came to 0.02.

With G5C G17U G19A G30C G33A, the self-cleavage was 0.02.

G5C A12U G44A: the self-cleavage was 0.04.

Turning to G5C A11C U28C, the self-cleavage came to 0.01.

For G5A U9C C15G G35C, the self-cleavage came to 0.02.

In the case of G5C C23A G36A, the self-cleavage turned out to be 0.05.

For the variant G5C A25U C46U, the self-cleavage turned out to be 0.02.

Take G5C A14C C23U C45U: the self-cleavage was 0.07.

Consider G5C C8U U20A G27A G30C C31U C37U C42G U43C, for which the self-cleavage amounted to 0.08.

For the variant G5C C31A C42G C46A, the self-cleavage is 0.02.

Take G5C C15U A16U U34C: the self-cleavage came out at 0.06.

For the variant G5A U9C G27C, the self-cleavage was found to be 0.03.

Regarding G5C C10U G17A, the self-cleavage turned out to be 0.02.

For the variant G5C C23U C31G, the self-cleavage stood at 0.02.

Consider G5C C10G A11C G30A, for which the self-cleavage was 0.02.

G5C A14G U34G: the self-cleavage came out at 0.07.

Take G5C C15A G35U G40C: the self-cleavage was 0.16.

As to G5C A6U G19A G30U C31G, the self-cleavage amounted to 0.04.

Take G5C C10G A39C: the self-cleavage was 0.02.

For the variant G5A U9A A26U U38A, the self-cleavage was 0.16.

For the variant G5C G19A U20G A25C A26C G33U, the self-cleavage turned out to be 0.12.

G5C A6U U34A: the self-cleavage is 0.03.

As to G5C C15A G21U G22C, the self-cleavage came to 0.02.

Regarding G5C A25U U43A, the self-cleavage turned out to be 0.02.

For the variant G5A U9A A16C C23A G27A, the self-cleavage was 0.07.

Take G5C C10A A25U G40U G44U: the self-cleavage amounted to 0.01.

As to G5C C13A G22A A26C G30C, the self-cleavage was 0.05.

G5C C10G A14C C18U A39G: the self-cleavage was 0.01.

G5C C8A C10U G40U G44U: the self-cleavage stood at 0.15.

On to G5A U20C A25U, for which the self-cleavage came out at 0.05.

For G5C A12U A26G C37G, the self-cleavage stood at 0.02.

For G5C C23G G36U, the self-cleavage is 0.06.

For G5C C8A A16G C18U C23U U32C G33A, the self-cleavage worked out at 0.04.

On to G5C C23A G29C, for which the self-cleavage stood at 0.02.

Consider G5C C8G C23G G30A U38A, for which the self-cleavage amounted to 0.18.

As for G5C A11C A12G A16G G21C, the self-cleavage was 0.01.

As to G5C C8G A11C, the self-cleavage was 0.01.

Turning to G5C C31A G35A A39C, the self-cleavage was found to be 0.02.

For the variant G5C A39G C42G, the self-cleavage stood at 0.03.

Consider G5C A12C A25C, for which the self-cleavage came out at 0.07.

In the case of G5C C31U G35U A39C, the self-cleavage came out at 0.01.

Turning to G5C A12C G19U C37U U38A, the self-cleavage worked out at 0.01.

Consider G5C C18G U20A A26U G40A C45U, for which the self-cleavage is 0.24.

With G5A U32C U34A G44U, the self-cleavage came to 0.04.

Take G5A U9G C42U: the self-cleavage came out at 0.11.

With G5A G40U C45A C46U, the self-cleavage was 0.04.

Consider G5C C15U C45A, for which the self-cleavage is 0.01.

In the case of G5C C8A C15A A16C G30A C31A, the self-cleavage is 0.12.

G5C C8G A12C C23A U28G: the self-cleavage stood at 0.

On to G5C A25C G30C C31U, for which the self-cleavage stood at 0.08.

For the variant G5C G7A U9A G19A U28C, the self-cleavage was determined as 0.6.

With G5C G7U C15A U34A, the self-cleavage was 0.15.

As for G5C C18G A25G, the self-cleavage is 0.02.

With G5A U9A C15A G22A, the self-cleavage amounted to 0.18.

Regarding G5C A25C G35C, the self-cleavage came to 0.03.

For the variant G5C C13U U34A, the self-cleavage is 0.11.

Regarding G5C C8A G27C G30A, the self-cleavage worked out at 0.04.

G5C C13G C23U A24U: the self-cleavage was 0.04.

Take G5C A6U C8G C10A A24C: the self-cleavage is 0.01.

For G5C C8U G40A, the self-cleavage amounted to 0.02.

In the case of G5C A16G A24G A41G, the self-cleavage was found to be 0.01.

As to G5C A12C G22A, the self-cleavage was 0.04.

For G5C C15A G21U, the self-cleavage was determined as 0.03.

Consider G5A U28G G36C A39U, for which the self-cleavage came to 0.02.

Consider G5A U20C U32A U38A, for which the self-cleavage is 0.03.

Turning to G5C G7C C15A A25G, the self-cleavage came out at 0.04.

Turning to G5C A14C G30U, the self-cleavage was 0.05.

As to G5C A14C U34A, the self-cleavage came out at 0.07.

On to G5C C15A G17A G36U A41U, for which the self-cleavage was determined as 0.05.
